# Measured values: PMC5669876
# Protein sequences, listed by entry. Tags and fused reporters are not part of them. Lines headed by an entry give the natural chain unless they say otherwise; changes in a name come on top.
# UniProt Q00987: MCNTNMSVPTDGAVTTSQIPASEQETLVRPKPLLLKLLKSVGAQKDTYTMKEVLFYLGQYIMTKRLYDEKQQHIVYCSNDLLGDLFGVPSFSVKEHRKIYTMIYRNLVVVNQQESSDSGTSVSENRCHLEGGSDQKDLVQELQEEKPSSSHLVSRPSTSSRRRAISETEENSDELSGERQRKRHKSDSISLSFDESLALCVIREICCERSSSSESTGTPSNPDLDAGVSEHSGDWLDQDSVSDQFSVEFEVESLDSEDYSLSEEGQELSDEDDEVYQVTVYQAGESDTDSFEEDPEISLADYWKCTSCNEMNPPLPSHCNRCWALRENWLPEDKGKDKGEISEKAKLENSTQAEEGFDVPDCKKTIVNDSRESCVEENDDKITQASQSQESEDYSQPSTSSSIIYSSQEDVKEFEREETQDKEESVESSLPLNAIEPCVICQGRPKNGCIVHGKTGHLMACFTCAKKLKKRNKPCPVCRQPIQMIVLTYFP
# UniProt P0DMV8: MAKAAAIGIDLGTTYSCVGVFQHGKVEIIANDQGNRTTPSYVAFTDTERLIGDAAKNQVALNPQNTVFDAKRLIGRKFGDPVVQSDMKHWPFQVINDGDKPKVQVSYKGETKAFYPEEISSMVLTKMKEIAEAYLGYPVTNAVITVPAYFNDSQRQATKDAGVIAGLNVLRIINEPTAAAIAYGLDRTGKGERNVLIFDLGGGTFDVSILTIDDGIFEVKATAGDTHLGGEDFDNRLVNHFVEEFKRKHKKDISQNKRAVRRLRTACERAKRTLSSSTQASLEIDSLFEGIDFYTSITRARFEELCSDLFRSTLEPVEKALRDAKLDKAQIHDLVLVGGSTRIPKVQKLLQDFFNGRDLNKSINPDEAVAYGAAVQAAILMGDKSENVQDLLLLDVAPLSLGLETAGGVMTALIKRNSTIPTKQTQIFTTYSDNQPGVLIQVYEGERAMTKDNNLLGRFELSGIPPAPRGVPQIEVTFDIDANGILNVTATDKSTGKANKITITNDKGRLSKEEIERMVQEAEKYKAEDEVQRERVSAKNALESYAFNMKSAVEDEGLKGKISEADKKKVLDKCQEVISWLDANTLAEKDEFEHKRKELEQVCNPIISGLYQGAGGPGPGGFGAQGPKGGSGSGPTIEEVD
# No constants are given. Whether binding was seen depends on the method and setting. Binding seen in cells or lysates may run through a third protein. Some entries that bind do so weakly or less than the wild type.
# How the values were obtained:
# [1] = molecular target: endogenous MDM2 (SKBR3) (human (endogenous in SKBR3)) (UniProt Q00987); test: co-IP; two step Co-IP from SKBR3 cells (endogenous p53 R175H and MDM2) transfected with TAp73α; DSP cross-linking; first IP anti-p53, second IP anti-MDM2
# [2] = molecular target: T1, endogenous TAp73α (SKBR3) (human (endogenous in SKBR3)) (UniProt O15350); test: co-IP; endogenous proteins of SKBR3 cell lysates; IP with anti-p73 antibody
# T1 sequence: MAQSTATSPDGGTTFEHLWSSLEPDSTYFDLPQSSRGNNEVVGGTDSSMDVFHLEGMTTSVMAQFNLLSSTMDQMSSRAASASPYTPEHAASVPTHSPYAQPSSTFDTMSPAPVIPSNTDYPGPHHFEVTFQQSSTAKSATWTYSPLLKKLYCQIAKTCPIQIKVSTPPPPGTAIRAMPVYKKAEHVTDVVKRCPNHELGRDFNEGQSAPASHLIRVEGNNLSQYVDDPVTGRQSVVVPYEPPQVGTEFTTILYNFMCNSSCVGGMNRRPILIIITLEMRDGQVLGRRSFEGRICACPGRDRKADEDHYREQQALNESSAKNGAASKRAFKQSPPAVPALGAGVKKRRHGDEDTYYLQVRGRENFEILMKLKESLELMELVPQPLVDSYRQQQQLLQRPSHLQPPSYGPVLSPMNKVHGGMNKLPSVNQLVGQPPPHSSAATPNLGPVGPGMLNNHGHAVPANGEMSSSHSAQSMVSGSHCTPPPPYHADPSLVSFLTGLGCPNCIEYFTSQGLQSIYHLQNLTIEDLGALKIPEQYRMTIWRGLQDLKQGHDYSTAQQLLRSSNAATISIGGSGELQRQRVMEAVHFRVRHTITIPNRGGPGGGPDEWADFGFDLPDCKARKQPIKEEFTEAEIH
# HA-HSP70 WT [3] = molecular target: HA-HSP70 WT (UniProt P0DMV8); test: co-IP; H1299 cells transfected with p53 R175H, TAp73α and HA-HSP70 WT/K71S/D10S (in one panel also HSP40 siRNA); HA-HSP70 immunoprecipitated with anti-HA antibody; Western blot
# HA-HSP70 K71S = HA-HSP70 K71S (UniProt P0DMV8); test: as above
# HA-HSP70 D10S = HA-HSP70 D10S (UniProt P0DMV8); test: as above
# MDM2 (ectopic, H1299) = MDM2 (ectopic, H1299) (UniProt Q00987); test: co-IP; two step Co-IP from transfected H1299 cells; cellular proteins cross-linked with 1 mM DSP; first IP anti-p53, elution with 100 mM glycine pH 2.5, second IP anti-HA or anti-MDM2; cross-links reversed with DTT; Western blot
# HA-HSP70 WT [4] = molecular target: HA-HSP70 WT (UniProt P0DMV8); test: as above
substance,measurement,setting,value
"TAp73α (ectopic, SKBR3) (from UniProt O15350 1-636)",binding,[1],binds
endogenous MDM2 (SKBR3) (from UniProt Q00987 1-491),binding,[2],binds
TAp73α (from UniProt O15350 1-636),binding,HA-HSP70 WT [3],binds
same,binding,HA-HSP70 K71S,binds
same,binding,HA-HSP70 D10S,no binding
same,binding,"MDM2 (ectopic, H1299)",binds
same,binding,HA-HSP70 WT [4],binds
